According to the supplement of paper PMC4604168 (melanoma cell lines):
This is one part of the list. Repeats are few or missing, and single values can be far off.

Columns and labels:
Assay in all cases: cell count relative to DMSO control; melanoma cells; higher = more viable cells
Conditions in all cases: library dose: low library concentration; 72 h
WM115 = system: WM115
WM1716 = system: WM1716
WM1745 = system: WM1745
WM3526 = system: WM3526
WM3619 = system: WM3619
WM451Lu = system: WM451Lu
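Further: cell number obtained by counting DAPI-stained nuclei in high-throughput microscope images with image analysis software, screen run in 1,536-well plates.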

| SMILES | cell count (WM115) | cell count (WM1716) | cell count (WM1745) | cell count (WM3526) | cell count (WM3619) | cell count (WM451Lu) |
| --- | --- | --- | --- | --- | --- | --- |
| N.N.[Cl][Pt][Cl] [cisplatin] + O=C(CCCCCCC(=O)Nc1ccccc1)NO [vorinostat] (first compound 1.6 µM, partner dose 0.08 µM) | 92.4% | 111% | 81.5% | 104% | 104% | 92.6% |
| C[C@]12O[C@H](C[C@]1(O)CO)n1c3ccccc3c3c4c(c5c6ccccc6n2c5c31)CNC4=O [Lestaurtinib] + NC(=O)Nc1cc(-c2cccc(F)c2)sc1C(=O)N[C@H]1CCCNC1 [AZD7762] (first compound 0.004 µM, partner dose 0.02 µM) | 94.4% | 84.8% | 81.9% | 67.7% | 57% | 132% |
| N.N.[Cl][Pt][Cl] [cisplatin] + O=C(O)C(=O)Nc1sc2c(c1C(=O)O)CCNC2 [TCS401] (first compound 1.6 µM, partner dose 1.66667 µM) | 94.5% | 96.2% | 92.5% | 84% | 87.1% | 81.5% |
| N.N.[Cl][Pt][Cl] [cisplatin] + C[C@@H]1CCN(C(=O)CC#N)C[C@@H]1N(C)c1ncnc2[nH]ccc12 [CP690550] (first compound 1.6 µM, partner dose 1 µM) | 90.5% | 85.4% | 96.8% | 90.5% | 92.6% | 93.5% |
| N.N.[Cl][Pt][Cl] [cisplatin] + COCC[n+]1c2c(n(Cc3cnccn3)c1C)C(=O)c1ccccc1C2=O [YM155] (first compound 1.6 µM, partner dose 0.0004 µM) | 110% | 100% | 96.1% | 111% | 132% | 71.7% |
